The whole screen tested about 310,000 compounds, of which about 14,000 (4.5%) showed an effect of 50% or more. The effect is printed as a negative number. Some of the results follow.
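Further: peak tail current of the secondary pulse compared with the same well before compound.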

Sequence of human ether-à-go-go-related gene (hERG) potassium channel (Q12809 whole entry, looked up): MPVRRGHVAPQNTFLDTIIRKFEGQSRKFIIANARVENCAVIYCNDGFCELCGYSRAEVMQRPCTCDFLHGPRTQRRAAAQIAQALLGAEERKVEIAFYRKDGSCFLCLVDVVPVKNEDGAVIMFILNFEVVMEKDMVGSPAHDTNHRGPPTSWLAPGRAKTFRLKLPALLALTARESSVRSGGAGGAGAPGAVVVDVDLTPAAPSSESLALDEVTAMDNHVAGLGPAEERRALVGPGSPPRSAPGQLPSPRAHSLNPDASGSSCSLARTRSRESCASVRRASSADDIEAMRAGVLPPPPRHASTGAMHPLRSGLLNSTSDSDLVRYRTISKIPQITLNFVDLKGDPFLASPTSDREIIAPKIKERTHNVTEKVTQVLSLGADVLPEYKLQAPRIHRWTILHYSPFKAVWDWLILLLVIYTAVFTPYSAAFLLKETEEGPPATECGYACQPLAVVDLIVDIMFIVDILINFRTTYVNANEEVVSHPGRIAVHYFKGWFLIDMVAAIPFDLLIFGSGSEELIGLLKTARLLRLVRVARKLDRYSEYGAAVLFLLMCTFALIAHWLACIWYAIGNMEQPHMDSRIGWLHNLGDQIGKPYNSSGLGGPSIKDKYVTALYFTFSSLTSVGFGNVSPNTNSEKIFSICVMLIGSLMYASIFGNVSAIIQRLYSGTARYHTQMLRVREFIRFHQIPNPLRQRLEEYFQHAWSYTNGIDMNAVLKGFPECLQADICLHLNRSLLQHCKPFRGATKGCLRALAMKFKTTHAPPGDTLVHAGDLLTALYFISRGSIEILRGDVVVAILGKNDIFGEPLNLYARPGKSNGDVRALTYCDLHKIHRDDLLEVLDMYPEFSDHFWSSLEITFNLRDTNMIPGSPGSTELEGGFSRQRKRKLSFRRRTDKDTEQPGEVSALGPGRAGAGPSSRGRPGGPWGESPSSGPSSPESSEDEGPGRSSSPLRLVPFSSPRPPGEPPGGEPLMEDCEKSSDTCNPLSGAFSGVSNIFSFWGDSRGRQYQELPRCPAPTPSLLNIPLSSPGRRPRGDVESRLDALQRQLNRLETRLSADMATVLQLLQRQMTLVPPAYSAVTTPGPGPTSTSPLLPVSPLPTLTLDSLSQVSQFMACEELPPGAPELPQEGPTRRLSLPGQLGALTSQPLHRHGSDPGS

The assay concerns the target human ether-à-go-go-related gene (hERG) potassium channel (human, UniProt Q12809). In words: primary screen, population patch clamp on CHO cells stably expressing hERG.
With `COC(=O)c1cc2ccsc2n1Cc1nc(-c2cccc(Cl)c2)oc1C`, the “hERG current change (%, negative = inhibition) at 10uM” value is reported as -28.6%.

Turning to `CC1CCCCN1C(=S)NC(=O)c1ccco1` (stereo not shown), the “hERG current change (%, negative = inhibition) at 10uM” value was 6.05%.

As for `CN(C)c1ccc(CNC(=O)C2CCN(S(=O)(=O)c3ccc4c(c3)CCC(=O)N4)CC2)cc1`, the “hERG current change (%, negative = inhibition) at 10uM” value was found to be 2.12%.

In the case of `CCOC(=O)c1cnn(CC2CCCCC2)c1N`, the “hERG current change (%, negative = inhibition) at 10uM” value is on record as 1.4%.

Regarding `CCCn1c(SCC(=O)c2c(C)[nH]c(C)c2C(=O)OCC)nc2ccccc21`, the “hERG current change (%, negative = inhibition) at 10uM” value was -26.1%.

For the molecule `O=c1c2ccccc2ncn1CCOCCOc1ccc([N+](=O)[O-])cc1`, the “hERG current change (%, negative = inhibition) at 10uM” value was -64.3%.

On to `S=C(NCc1ccc(Cl)cc1Cl)Nc1ccccc1`, for which the “hERG current change (%, negative = inhibition) at 10uM” value is given as 10.1%.

Take `O=C(COC(=O)c1cc(S(=O)(=O)N2CCCC2)ccc1O)NCCc1ccccc1`: the “hERG current change (%, negative = inhibition) at 10uM” value was -7.17%.

Take `O=C(O)CSc1nnc(COc2ccccc2)n1-c1ccccc1`: the “hERG current change (%, negative = inhibition) at 10uM” value is reported as -17.1%.

As to `Cc1ccc(S(=O)(=O)NNC(=O)c2ccc(F)cc2)cc1`, the “hERG current change (%, negative = inhibition) at 10uM” value was 19.4%.

For `COc1cc(/C=N/Nc2nc(=O)[nH]nc2C)cc([N+](=O)[O-])c1O`, the “hERG current change (%, negative = inhibition) at 10uM” value is 2.08%.

`CCCCCSc1nnc(C)c(=O)[nH]1`: the “hERG current change (%, negative = inhibition) at 10uM” value came out at 9.47%.

As to `Cc1ccc(Nc2cc(C)nc(N3CCOCC3)n2)cc1`, the “hERG current change (%, negative = inhibition) at 10uM” value stood at 6.18%.

In the case of `OCCCc1nc2ccccc2n1CCc1ccccc1`, the “hERG current change (%, negative = inhibition) at 10uM” value is recorded as -9.94%.

Turning to `CC(=O)Nc1ccc(S(=O)(=O)N2CCN(c3nnnn3-c3ccccc3)CC2)cc1`, the “hERG current change (%, negative = inhibition) at 10uM” value is recorded as 13.1%.

As to `COc1ccc(S(=O)(=O)N2CCCCC2)cc1NC(=O)CNc1ccccc1N1CCCC1=O`, the “hERG current change (%, negative = inhibition) at 10uM” value is -20.4%.

As to `Cc1ccc(-n2c3c(c(O)c(-c4ccccc4)c2=O)C(=O)CC(C)(C)C3)cc1`, the “hERG current change (%, negative = inhibition) at 10uM” value is recorded as -55.2%.

Turning to `COc1ccc(NC(=S)N2CCC(NC(=O)c3ccccc3C)CC2)cc1`, the “hERG current change (%, negative = inhibition) at 10uM” value was 19.6%.

Regarding `c1ccc(CCNCC2COc3ccccc3O2)cc1` (stereo not shown), the “hERG current change (%, negative = inhibition) at 10uM” value was -6.6%.

For `CCN(C(=O)CSc1nc2cc(Cl)ccc2c(=O)n1Cc1ccco1)C1CCS(=O)(=O)C1` (stereo not shown), the “hERG current change (%, negative = inhibition) at 10uM” value is -74.7%.

As to `CC(C)NC(=O)C1CCN(C(=O)c2ccc(-c3ccccc3)cc2)CC1`, the “hERG current change (%, negative = inhibition) at 10uM” value is -1.8%.

As for `COc1ccccc1NC(=O)C(C)Sc1nc(-c2ccccc2)cn1N` (stereo not shown), the “hERG current change (%, negative = inhibition) at 10uM” value is -45.3%.

Consider `Cc1ccnc(NS(=O)(=O)c2ccc(NC(=O)c3ccc(N4C(=O)CCC4=O)cc3)cc2)n1`, for which the “hERG current change (%, negative = inhibition) at 10uM” value is recorded as 7.58%.

As for `Cc1cccc(C)c1OC(=O)CCN1C(=O)C2C3C=CC(C4CC34)C2C1=O` (stereo not shown), the “hERG current change (%, negative = inhibition) at 10uM” value is given as 1.91%.

Turning to `COc1cccc(/C=C2/SC(=S)N(CCC(=O)N3CCOCC3)C2=O)c1`, the “hERG current change (%, negative = inhibition) at 10uM” value is 15.2%.

As for `O=S(=O)([N-]c1nc2ccccc2nc1-[n+]1ccc(Cc2ccccc2)cc1)c1ccc(Br)s1`, the “hERG current change (%, negative = inhibition) at 10uM” value is listed as -36.3%.

As to `CCn1cc(C(=O)N2CCCC2)c(=O)c2cc(S(=O)(=O)N(C)C)ccc21`, the “hERG current change (%, negative = inhibition) at 10uM” value is reported as 7.8%.

With `Cc1ccc(S(=O)(=O)c2nnn3c2nc(N2CCN(c4ccccn4)CC2)c2ccccc23)cc1`, the “hERG current change (%, negative = inhibition) at 10uM” value is listed as -1.69%.

With `CCOC(=O)c1cccc(COC(=O)c2cccc(-c3nnc(-c4ccccc4)o3)c2)c1`, the “hERG current change (%, negative = inhibition) at 10uM” value was -2.94%.

Turning to `O=C(CCCN1CCC(n2c(=O)[nH]c3ccccc32)CC1)c1ccc(F)cc1`, the “hERG current change (%, negative = inhibition) at 10uM” value is on record as -73%.

For `NC(=O)CSc1nnc(NC(=O)C23CC4CC(CC(C4)C2)C3)s1`, the “hERG current change (%, negative = inhibition) at 10uM” value is given as 0.0407%.

As to `COC(=O)CSc1nnc(CNC(=O)c2cc(OC)cc(OC)c2)n1-c1ccc(F)cc1`, the “hERG current change (%, negative = inhibition) at 10uM” value is on record as -4.55%.

As for `CCN(CC)C(=O)C1CCCN(C(=O)Nc2ccc(NC(=O)N3CCCC(C(=O)N(CC)CC)C3)cc2)C1` (stereo not shown), the “hERG current change (%, negative = inhibition) at 10uM” value is -11.5%.

As for `CCN(CC)C(=O)c1cn(CC)c(=O)c2cc(OC)c(OC)cc12`, the “hERG current change (%, negative = inhibition) at 10uM” value was -3.19%.

For `COc1cc2c(cc1OC)CN(C(C)C(=O)N1CCc3ccccc31)CC2` (stereo not shown), the “hERG current change (%, negative = inhibition) at 10uM” value is on record as -14%.

As for `CC(NC(=O)c1ccco1)c1nc(-c2ccc(Cl)cc2)no1` (stereo not shown), the “hERG current change (%, negative = inhibition) at 10uM” value is listed as -17.3%.

Take `COc1ccc(OC)c(CNC(=O)CCSCc2ccc(F)cc2Cl)c1`: the “hERG current change (%, negative = inhibition) at 10uM” value is -17.2%.

In the case of `Nc1c2c(=O)oc(-c3ccccc3)cc2nn1-c1ccccc1`, the “hERG current change (%, negative = inhibition) at 10uM” value was -8.65%.

On to `N#C/C(=C\c1ccc(-c2ccccc2Cl)o1)C(=O)Nc1nc2ccccc2s1`, for which the “hERG current change (%, negative = inhibition) at 10uM” value is 32.7%.

On to `CCc1cc(=O)oc2c(CNCc3ccccc3F)c(O)c(Cl)cc12.Cl`, for which the “hERG current change (%, negative = inhibition) at 10uM” value is listed as 9.4%.

Turning to `CN(C)c1nc(N)ncc1-c1ccc(Oc2ccccc2)cc1`, the “hERG current change (%, negative = inhibition) at 10uM” value is reported as 18%.

On to `CCCc1ccc(-c2csc(NC(=O)Cc3cccs3)n2)cc1`, for which the “hERG current change (%, negative = inhibition) at 10uM” value stood at 16.9%.

With `CCc1ccc(-c2cnc3ccccc3n2)cc1NC(=O)CNC(=O)c1ccccc1`, the “hERG current change (%, negative = inhibition) at 10uM” value was found to be 18.9%.

For the origin of these results see article PMC4336329 (PLoS ONE, 2015).
